Data published in article PMC9600911.
Results are given in words; binding and its absence hold for the method and conditions named. For some of these results: In cells and extracts the contact can be indirect. Some results given as binding are weak or reduced against the parent protein; the word gives no strength. Each block holds one molecule with its values, some of them ahead of it.

Sequences of proteins named here, by UniProt entry; tags and fusion partners are left off. A change or cut given only in a name is not applied to a line headed by its entry.
UniProt Q68E01: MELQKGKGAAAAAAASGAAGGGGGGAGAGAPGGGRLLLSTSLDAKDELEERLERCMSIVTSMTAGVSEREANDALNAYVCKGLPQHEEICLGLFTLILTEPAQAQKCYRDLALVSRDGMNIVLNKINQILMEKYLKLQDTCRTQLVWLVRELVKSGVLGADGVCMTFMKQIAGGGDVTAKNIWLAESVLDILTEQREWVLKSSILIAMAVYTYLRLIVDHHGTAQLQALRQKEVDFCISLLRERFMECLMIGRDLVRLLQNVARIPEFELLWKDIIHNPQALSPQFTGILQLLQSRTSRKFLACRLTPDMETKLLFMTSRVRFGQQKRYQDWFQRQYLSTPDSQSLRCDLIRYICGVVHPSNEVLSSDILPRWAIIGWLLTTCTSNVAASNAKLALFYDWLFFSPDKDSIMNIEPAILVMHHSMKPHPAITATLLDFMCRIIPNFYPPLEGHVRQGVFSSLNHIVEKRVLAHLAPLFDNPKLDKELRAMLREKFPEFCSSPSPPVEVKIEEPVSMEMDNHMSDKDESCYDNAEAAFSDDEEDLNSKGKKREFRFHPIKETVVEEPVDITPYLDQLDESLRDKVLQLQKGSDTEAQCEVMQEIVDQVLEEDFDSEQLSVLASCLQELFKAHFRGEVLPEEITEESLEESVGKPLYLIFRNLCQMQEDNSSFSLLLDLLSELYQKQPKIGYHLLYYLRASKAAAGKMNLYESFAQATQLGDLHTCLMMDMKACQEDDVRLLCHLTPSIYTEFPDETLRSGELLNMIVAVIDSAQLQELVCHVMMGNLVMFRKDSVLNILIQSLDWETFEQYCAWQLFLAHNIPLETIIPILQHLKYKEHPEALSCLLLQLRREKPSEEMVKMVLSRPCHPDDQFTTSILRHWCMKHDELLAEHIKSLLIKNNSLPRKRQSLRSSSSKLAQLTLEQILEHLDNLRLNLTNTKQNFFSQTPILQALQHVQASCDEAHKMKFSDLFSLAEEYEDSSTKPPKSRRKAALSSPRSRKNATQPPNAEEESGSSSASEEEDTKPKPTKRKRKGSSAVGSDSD
UniProt P09874: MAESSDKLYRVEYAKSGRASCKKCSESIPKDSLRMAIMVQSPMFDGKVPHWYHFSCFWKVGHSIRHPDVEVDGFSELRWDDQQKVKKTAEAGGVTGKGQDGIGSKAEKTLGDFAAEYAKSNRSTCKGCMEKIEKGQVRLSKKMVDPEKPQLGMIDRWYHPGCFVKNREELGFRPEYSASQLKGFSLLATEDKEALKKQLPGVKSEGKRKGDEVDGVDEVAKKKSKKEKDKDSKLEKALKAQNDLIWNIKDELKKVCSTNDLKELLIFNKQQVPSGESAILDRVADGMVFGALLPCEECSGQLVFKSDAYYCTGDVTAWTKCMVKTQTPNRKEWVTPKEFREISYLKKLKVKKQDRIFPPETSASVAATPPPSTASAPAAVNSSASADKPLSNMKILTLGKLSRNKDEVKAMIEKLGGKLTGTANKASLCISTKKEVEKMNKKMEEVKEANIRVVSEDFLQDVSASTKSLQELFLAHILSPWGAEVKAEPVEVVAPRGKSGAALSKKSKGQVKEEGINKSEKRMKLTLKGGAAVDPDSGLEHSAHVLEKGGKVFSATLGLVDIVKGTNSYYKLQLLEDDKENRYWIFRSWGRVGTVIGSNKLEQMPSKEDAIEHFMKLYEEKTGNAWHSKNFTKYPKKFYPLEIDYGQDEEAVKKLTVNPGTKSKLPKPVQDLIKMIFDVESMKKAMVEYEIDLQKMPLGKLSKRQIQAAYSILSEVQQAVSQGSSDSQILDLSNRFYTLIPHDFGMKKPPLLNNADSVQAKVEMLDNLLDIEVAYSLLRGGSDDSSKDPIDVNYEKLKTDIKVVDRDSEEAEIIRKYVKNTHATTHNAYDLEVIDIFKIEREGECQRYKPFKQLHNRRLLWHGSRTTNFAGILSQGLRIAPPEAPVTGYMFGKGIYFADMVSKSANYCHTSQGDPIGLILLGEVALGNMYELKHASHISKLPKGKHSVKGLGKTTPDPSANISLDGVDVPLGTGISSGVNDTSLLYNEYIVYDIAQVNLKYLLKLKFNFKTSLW

Tests used:
[1] = molecular target: recombinant GST-tagged full-length IntS3 (UniProt Q68E01); test: pull-down; GST-FL-IntS3 bound to glutathione beads, incubated with His-tagged PARP1 constructs; blot with anti-His; also with PARP1 pre-incubated with DNA or RNA for 30 min; both purified
[2] = molecular target: recombinant His-tagged full-length PARP1 (UniProt P09874); test: co-IP; recombinant His-FL-PARP1 immobilised through PARP1 antibody (legend: His antibody) on protein-G beads, incubated with GST-tagged IntS3 constructs; several stringent washes; blot with anti-GST; both purified
[3] = molecular target: T1, PARP1 (poly (ADP-ribose) polymerase 1), endogenous in Drosophila S2 cells (Drosophila melanogaster (endogenous in S2)) (UniProt P35875); test: co-IP; S2 nuclear lysates; PARP1 or IntS3 antibody on protein G beads; highly stringent conditions (0.4 M KCl, 0.05% NP-40); WT and PARP1 siRNA knock-down cells; IgG control
T1 sequence: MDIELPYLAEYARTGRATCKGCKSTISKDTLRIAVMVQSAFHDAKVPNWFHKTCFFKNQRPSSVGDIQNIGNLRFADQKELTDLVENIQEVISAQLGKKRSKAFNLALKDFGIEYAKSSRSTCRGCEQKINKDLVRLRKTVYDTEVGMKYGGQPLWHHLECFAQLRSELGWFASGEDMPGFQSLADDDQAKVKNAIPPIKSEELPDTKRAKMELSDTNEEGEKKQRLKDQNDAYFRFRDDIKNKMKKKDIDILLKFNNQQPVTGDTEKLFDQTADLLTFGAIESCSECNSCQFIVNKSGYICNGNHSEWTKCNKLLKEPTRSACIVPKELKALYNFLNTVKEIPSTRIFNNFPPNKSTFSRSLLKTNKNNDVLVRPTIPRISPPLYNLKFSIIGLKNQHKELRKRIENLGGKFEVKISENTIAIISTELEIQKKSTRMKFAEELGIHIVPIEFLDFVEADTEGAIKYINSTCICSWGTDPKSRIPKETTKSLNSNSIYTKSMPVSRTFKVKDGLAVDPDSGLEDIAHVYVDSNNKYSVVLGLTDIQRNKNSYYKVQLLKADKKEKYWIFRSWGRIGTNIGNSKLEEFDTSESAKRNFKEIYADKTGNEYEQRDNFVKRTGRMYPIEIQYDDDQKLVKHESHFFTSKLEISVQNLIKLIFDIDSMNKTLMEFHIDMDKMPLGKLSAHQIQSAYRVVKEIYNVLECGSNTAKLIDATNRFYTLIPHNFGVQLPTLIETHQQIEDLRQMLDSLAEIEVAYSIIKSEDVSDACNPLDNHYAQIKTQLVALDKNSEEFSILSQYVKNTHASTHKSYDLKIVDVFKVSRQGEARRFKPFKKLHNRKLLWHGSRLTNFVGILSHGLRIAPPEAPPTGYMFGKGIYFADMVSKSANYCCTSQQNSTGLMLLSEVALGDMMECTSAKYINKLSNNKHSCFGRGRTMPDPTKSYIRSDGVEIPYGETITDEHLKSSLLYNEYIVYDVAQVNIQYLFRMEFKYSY

[4] = molecular target: T2, Integrator subunit 3 (IntS3), endogenous in Drosophila S2 cells (Drosophila melanogaster (endogenous in S2)) (UniProt Q7PLS8); test: as above
T2 sequence: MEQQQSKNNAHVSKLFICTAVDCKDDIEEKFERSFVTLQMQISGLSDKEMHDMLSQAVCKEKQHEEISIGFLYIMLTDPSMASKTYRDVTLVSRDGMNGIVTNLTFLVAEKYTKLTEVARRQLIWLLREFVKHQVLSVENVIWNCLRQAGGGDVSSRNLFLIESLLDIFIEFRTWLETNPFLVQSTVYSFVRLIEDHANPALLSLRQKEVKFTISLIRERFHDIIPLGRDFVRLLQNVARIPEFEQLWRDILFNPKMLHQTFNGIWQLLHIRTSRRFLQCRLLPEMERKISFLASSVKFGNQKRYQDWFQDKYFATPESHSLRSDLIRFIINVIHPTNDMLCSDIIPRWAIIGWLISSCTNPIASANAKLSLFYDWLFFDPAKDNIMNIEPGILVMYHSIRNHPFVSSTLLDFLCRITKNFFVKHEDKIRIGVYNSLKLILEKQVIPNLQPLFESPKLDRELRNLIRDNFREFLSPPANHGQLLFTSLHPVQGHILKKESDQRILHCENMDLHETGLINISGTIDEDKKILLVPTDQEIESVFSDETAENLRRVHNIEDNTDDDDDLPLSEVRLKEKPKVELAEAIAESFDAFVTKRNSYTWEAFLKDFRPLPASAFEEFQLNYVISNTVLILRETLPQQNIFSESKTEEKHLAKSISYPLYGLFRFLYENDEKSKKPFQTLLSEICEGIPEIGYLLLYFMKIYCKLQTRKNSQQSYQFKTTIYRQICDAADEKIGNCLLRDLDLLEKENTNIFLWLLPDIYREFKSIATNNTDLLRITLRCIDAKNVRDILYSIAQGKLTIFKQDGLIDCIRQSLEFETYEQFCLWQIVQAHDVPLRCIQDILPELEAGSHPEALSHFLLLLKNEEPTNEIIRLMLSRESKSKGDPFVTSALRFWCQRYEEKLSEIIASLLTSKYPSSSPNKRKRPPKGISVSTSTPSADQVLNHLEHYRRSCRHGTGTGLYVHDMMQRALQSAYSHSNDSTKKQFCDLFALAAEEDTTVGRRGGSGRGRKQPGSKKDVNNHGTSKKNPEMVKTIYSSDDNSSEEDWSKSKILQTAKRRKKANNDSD

binding [1]: binds
Molecule: His-tagged PARP1 BRCT domain only (from UniProt P09874 385-476) (domain or fragment)

binding [1]: binds
Molecule: recombinant His-tagged full-length PARP1 (from UniProt P09874 1-1014)

binding [1]: binds
Molecule: recombinant His-tagged full-length PARP1, auto-PARylated with NAD+ (from UniProt P09874 1-1014)

binding [2]: binds
Molecule: recombinant GST-tagged full-length IntS3 (from UniProt Q68E01 1-1043)

binding [3]: no binding
B1: cyclin T1 (CycT1, a member of the P-TEFb complex), endogenous in Drosophila S2 cells (protein, UniProt O96433 1-1097)
chain: MSLLATPMPQAATASSSSSASAAASASGIPITANNNLPFEKDKIWYFSNDQLANSPSRRCGIKGDDELQYRQMTAYLIQEMGQRLQVSQLCINTAIVYMHRFYAFHSFTHFHRNSMASASLFLAAKVEEQPRKLEHVIRAANKCLPPTTEQNYAELAQELVFNENVLLQTLGFDVAIDHPHTHVVRTCQLVKACKDLAQTSYFLASNSLHLTSMCLQYRPTVVACFCIYLACKWSRWEIPQSTEGKHWFYYVDKTVSLDLLKQLTDEFIAIYEKSPARLKSKLNSIKAIAQGASNRTANSKDKPKEDWKITEMMKGYHSNITTPPELLNGNDSRDRDRDRERERERERDPSSLLPPPAMVPQQRRQDGGHQRSSSVSGVPGSSSSSSSSSHKMPNYPGGMPPDAHTDHKSKQPGYNNRMPSSHQRSSSSGLGSSGSGSQRSSSSSSSSSQQPGRPSMPVDYHKSSRGMPPVGVGMPPHGSHKMTSGSKPQQPQQQPVPHPSASNSSASGMSSKDKSQSNKMYPNAPPPYSNSAPQNPLMSRGGYPGASNGSQPPPPAGYGGHRSKSGSTVHGMPPFEQQLPYSQSQSYGHMQQQPVPQSQQQQMPPEASQHSLQSKNSLFSPEWPDIKKEPMSQSQPQPFNGLLPPPAPPGHDYKLNSHPRDKESPKKERLTPTKKDKHRPVMPPVGSGNSSSGSGSSKPMLPPHKKQIPHGGDLLTNPGESGSLKRPNEISGSQYGLNKLDEIDNSNMPREKLRKLDTTTGLPTYPNYEEKHTPLNMSNGIETTPDLVRSLLKESLCPSNASLLKPDALTMPGLKPPAELLEPMPAPATIKKEQGITPMTSLASGPAPMDLEVPTKQAGEIKEESSSKSEKKKKKDKHKHKEKDKSKDKTEKEERKKHKKDKQKDRSGSGGSKDSSLPNEPLKMVIKNPNGSLQAGASAPIKLKISKNKVEPNNYSAAAGLPGAIGYGLPPTTATTTSASIGAAAPVLPPYGAGGGGYSSSGGSSSGGSSKKKHSDRDRDKESKKNKSQDYAKYNGAGGGIFNPLGGAGAAPNMSGGMGAPMSTAVPPSMLLAPTGAVPPSAAGLAPPPMPVYNKK

binding [3]: binds
B2: Integrator subunit 3 (IntS3), endogenous in Drosophila S2 cells (protein, UniProt Q7PLS8 1-1068)
chain: T2 sequence

binding [4]: binds
B3: PARP1 (poly (ADP-ribose) polymerase 1), endogenous in Drosophila S2 cells (protein, UniProt P35875 1-994)
chain: T1 sequence
